This is an account of results in patent publication US12484583B2 (priority 2019, dated 2025).

Several values for one entry are separate records, joined by “and”; a condition that tells them apart may be missing. Identical values can stand only once. Like-named read-outs stand apart in the source and are kept apart here.

Common to all, as to assay type: cell-based
Assay [1] deals with Fusarium graminerum. The conditions noted are these: 8 days.
For another assay, the system named is Alternaria solani. Put plainly: Fungal growth on PDA agar, lambda-cyhalothrin (Example 8). The settings on record: 4 days. The source says: (§1) The Colby equation (Colby, 1967. Weeds 15: 20-22) calculates the expected antifungal activity (E in %) of a combination comprising more than one active ingredients: E=X+Y−[(X·Y)/100] wherein X and Y are the observed antifungal activities (in %) of the individual active ingredients x and y, respectively. If the observed antifungal activity (O in %) of the combination exceeds the expected antifungal activity (E in %) of the combination and the synergy factor O/E is thus >1.0, the combined application of the active ingredients leads to a synergistic antifungal effect.
(§2) Agar medium was prepared by mixing in a 100 ml Duran bottle 3.9 g of potato dextrose agar (PDA) from Carl-Roth (Carl-Roth GmbH+Co. KG, Karlsruhe, Germany) with 100 ml deionized water and autoclaving the Duran bottle at 120° C. for 15 minutes. After autoclaving, the solution was cooled by putting it in a 48° C. oven for about two hours. […] The medium in the Duran bottle was divided over 5 petri dishes (90×15 mm), 20 ml per petri dish by using 25 ml serological pipets (ROTILABO®; Carl-Roth).
(§3) Fungal spore suspensions were prepared by drenching a fully grown petri dish with sterile water. The fungus was scraped off and filtered through a Miracloth (pore size: 22-25 μm) (Merck KGaA, Darmstadt, Germany; catalogue number: 475855). The number of spores were counted with a hemocytometer and fungal suspension was adjusted to 10^6 spores per ml. Afterward, 5 µl of prepared spore suspension was pipetted on the center of the agar plate. The plates were incubated at 25° C. Measurement of the fungal growth was done using calipers at different time points.
(§4) See Example 6. In this example the product KARATE ZEON® of Syngenta containing the active ingredient lambda-cyhalothrin belonging to IRAC Group 3 was used.
The insecticide concentration “N” (see below) that was used was 500 μl of a 25 times in water diluted insecticide solution per 100 ml PDA agar. 2N is 1000 μl of the in water diluted solution per 100 ml PDA agar. 5N was 100 μl of the undiluted Karate zeon product in 100 ml of PDA agar.

The next assay concerns Sclerotinia sclerotiorum. The experiment in a line: Fungal growth on PDA agar, lambda-cyhalothrin (Example 9). The settings on record: 4 days.
From the text: as §1, §2, §3, §4
The insecticide concentration “N” (see below) that was used was 500 μl of a 25 times in water diluted insecticide solution per 100 ml PDA agar. 2N is 1000 μl of the in water diluted solution per 100 ml PDA agar. 5N was 100 μl of the undiluted product in 100 ml of PDA agar.

Assay [2] deals with Botrytis cinerea. Put plainly: Fungal growth on PDA agar, lambda-cyhalothrin (Example 10). The settings on record: 6 days.
From the text: as §1, §2, §3, §4
The insecticide concentration “N” (see below) that was used was 20 μl of insecticide product per 100 ml PDA agar. 0.5N is 10 μl of the product per 100 ml PDA agar. 0.25N was 5 μl of the undiluted Karate zeon product in 100 ml of PDA agar and 0.125N was 2.5 μl of the insecticide product per 100 ml PDA agar.
1:25 (w/w) and 1:50 (w/w). The efficacy was assessed after 6 days of incubation in a stove at 25° C.

Assay [3] has as its system Fusarium culmorum. The experiment in a line: Fungal growth on PDA agar, lambda-cyhalothrin (Example 7). The settings on record: 7 days.
From the text: as §1, §2, §3, §4
The insecticide concentration “N” (see below) that was used was 20 μl insecticide product per 100 ml PDA agar. 0.5 N is 10 μl per 100 ml PDA agar.

Assay [4] deals with Fusarium culmorum. The experiment in a line: Fungal growth on PDA agar, hydropene (Example 17). The settings on record: 5 days.
For assay [5], the system named is Botrytis cinerea. Put plainly: Fungal growth on PDA agar, hydropene (Example 16). The conditions noted are these: 4 days.
In assay [6] the test system is Fusarium graminerum. The settings on record: 5 days.
Assay [7] has as its system Fusarium culmorum. Put plainly: Fungal growth on PDA agar, thiamethoxam (Example 12). The settings on record: alone or + natamycin 0.5 pm, 4 days.
From the text: as §1, §2, §3
See Example 6. In this example the active ingredient thiamethoxam belonging to IRAC Group 4 was mixed with water to make a 1000 ppm solution. The insecticide concentration “N” (see below) that was used was 5 ml of insecticide solution per 100 ml PDA agar. 2N is 10 ml of the thiamethoxam solution per 100 ml PDA agar.
The efficacy was assessed after 4 days of incubation in a stove at 25° C.

Assay [8] relates to Fusarium graminerum. The conditions noted are these: 3 days.
[9] abbreviates: Lambda-cyhalothrin 1N (500 μl of 25 times diluted KARATE ZEON per 100 ml PDA), alone or + natamycin 0.5 ppm (1:100 w/w).
Setting [10] is: Lambda-cyhalothrin 2N (1000 μl of 25 times diluted KARATE ZEON per 100 ml PDA), alone or + natamycin 0.5 ppm (1:200 w/w).
The mark [11] stands for this setting: Lambda-cyhalothrin 5N (100 μl undiluted Karate zeon per 100 ml PDA), alone or + natamycin 0.5 ppm (1:500 w/w).
[12] abbreviates: cyhalothrin 1N (500 μl of 25 times diluted KARATE ZEON per 100 ml PDA), alone or + natamycin 0.5 ppm (1:100 w/w).
Where [13] appears, read: cyhalothrin 2N (1000 μl of 25 times diluted KARATE ZEON per 100 ml PDA), alone or + natamycin 0.5 ppm (1:200 w/w).
[14] abbreviates: cyhalothrin 5N (100 μl undiluted product per 100 ml PDA), alone or + natamycin 0.5 ppm (1:500 w/w).
Where [15] appears, read: cyhalothrin 0.25N (5 μl Karate zeon per 100 ml PDA), alone or + natamycin 1 ppm (1:12.5 w/w).
Setting [16] is: cyhalothrin 0.5N (10 μl KARATE ZEON per 100 ml PDA), alone or + natamycin 1 ppm (1:25 w/w).
Where [17] appears, read: cyhalothrin 1N (20 μl KARATE ZEON per 100 ml PDA), alone or + natamycin 1 ppm (1:50 w/w).
[18] abbreviates: hydropene 0.25N (75 μl of 2.49 ml Gentrol in 50 ml water), alone or + natamycin 1 ppm (1:3.4 w/w).
The mark [19] stands for this setting: hydropene 0.5N (150 μl of 2.49 ml Gentrol in 50 ml water), alone or + natamycin 1 ppm (1:6.75 w/w).
Setting [20] is: hydropene 1N (300 μl of 2.49 ml Gentrol in 50 ml water), alone or + natamycin 1 ppm (1:13.5 w/w).
Where [21] appears, read: thiamethoxam 0.5N (text defines only N and 2N).
Where [22] appears, read: thiamethoxam 1N (N = 5 ml of 1000 ppm solution per 100 ml PDA).
Where [23] appears, read: emamectin benzoate 0.5N (125 mg OPTIGARD Cockroach Gel Bait per 100 ml PDA), alone or + natamycin 0.25 ppm (1:5 w/w).
The mark [24] stands for this setting: emamectin benzoate 1N (250 mg OPTIGARD Cockroach Gel Bait per 100 ml PDA), alone or + natamycin 0.25 ppm (1:10 w/w).

Turning to `C/C=C(\C)C(=O)O[C@H]1C[C@@H](OC(C)=O)[C@@]2(C(=O)OC)CO[C@H]3[C@@H](O)[C@@](C)([C@]45O[C@@]4(C)[C@H]4C[C@@H]5O[C@@H]5OC=C[C@@]54O)[C@H]4[C@]1(CO[C@]4(O)C(=O)OC)[C@@H]32` [Azadirachtin], the “Area (fungal growth)” value in the assay with Fusarium graminerum [1] is 2262.22 mm2 and 3303.19 mm2.

For the molecule `CC1(C)[C@H](/C=C(\Cl)C(F)(F)F)[C@@H]1C(=O)O[C@@H](C#N)c1cccc(Oc2ccccc2)c1` [Lambda-Cyhalothrin, [(R)-cyano-(3-phenoxyphenyl)methyl] (1S,3S)-3-[(Z)-2-chloro-3,3,3-trifluoroprop-1-enyl]-2,2-dimethylcyclopropane-1-carboxylate], the “Area (fungal growth)” value with Alternaria solani (setting [9]) turned out to be 1109.53 mm2; with Alternaria solani (setting [10]), 871.89 mm2; in the assay with Alternaria solani (setting [11]), 722.71 mm2; with Sclerotinia sclerotiorum (setting [12]), 1672.70 mm2; with Sclerotinia sclerotiorum (setting [13]), 1620.50 mm2; in the assay on Sclerotinia sclerotiorum (setting [14]), 1528.98 mm2. The “Area (fungal growth)” value in the assay with Botrytis cinerea [2] (setting [15]) amounted to 3544.50 mm2; with Botrytis cinerea [2] (setting [16]), 3366.17 mm2; with Botrytis cinerea [2] (setting [17]) it was 3295.33 mm2; with Fusarium culmorum [3] (setting [16]), 2546.95 mm2; in the assay on Fusarium culmorum [3] (setting [17]), 2702.22 mm2. The “O % observed antifungal activity” value in the assay on Alternaria solani (setting [9]) was 32.05%; in the assay with Alternaria solani (setting [10]) it was 46.60%; in the assay with Alternaria solani (setting [11]) it was 55.74%; with Sclerotinia sclerotiorum (setting [12]), 14.54%; with Sclerotinia sclerotiorum (setting [13]), 17.21%; in the assay with Sclerotinia sclerotiorum (setting [14]), 21.89%. Further, the “O % observed antifungal activity” value in the assay with Botrytis cinerea [2] (setting [15]) is given as −9.03%; in the assay with Botrytis cinerea [2] (setting [16]) it was −3.54%; in the assay on Botrytis cinerea [2] (setting [17]) it was −1.36%; in the assay on Fusarium culmorum [3] (setting [16]), 14.46%; in the assay on Fusarium culmorum [3] (setting [17]) it was 9.25%.

Take `CCOC(=O)/C=C(C)/C=C/CC(C)CCCC(C)C` (centres unmarked) [hydropene, hydroprene]: the “Area (fungal growth)” value was determined as 410.28 mm2 with Fusarium culmorum [4] (setting [18]); 371.59 mm2 in the assay with Fusarium culmorum [4] (setting [19]); 291.67 mm2 in the assay with Fusarium culmorum [4] (setting [20]); 287.31 mm2 with Botrytis cinerea [5] (setting [18]); 270.12 mm2 in the assay with Botrytis cinerea [5] (setting [19]); 251.05 mm2 in the assay with Botrytis cinerea [5] (setting [20]). For the same molecule, the “O % observed antifungal activity” value with Fusarium culmorum [4] (setting [18]) was 51.92%; in the assay on Fusarium culmorum [4] (setting [19]) it was 56.45%; in the assay on Fusarium culmorum [4] (setting [20]) it was 65.82%; in the assay with Botrytis cinerea [5] (setting [18]) it was 90.20%; in the assay on Botrytis cinerea [5] (setting [19]) it was 90.78%; with Botrytis cinerea [5] (setting [20]) it was 91.43%. The “O % observed antifungal activity” value with Fusarium graminerum [6] is 83.75% and 88.72% and 75.87%.

For the molecule `CN1COCN(Cc2cnc(Cl)s2)C1=N[N+](=O)[O-]` [thiamethoxam, N-[3-[(2-chloro-1,3-thiazol-5-yl)methyl]-5-methyl-1,3,5-oxadiazinan-4-ylidene]nitramide], in the assay with Fusarium culmorum [7] (setting [21]), the “Area (fungal growth)” value stood at 875.68 mm2 and the “O % observed antifungal activity” value is 6.43%. In the assay with Fusarium culmorum [7] (setting [22]), the “Area (fungal growth)” value is 897.35 mm2 and the “O % observed antifungal activity” value is given as 4.11%.

For the molecule emamectin benzoate, in the assay with Fusarium graminerum [8] (setting [23]), the “Area (fungal growth)” value came out at 329.33 mm2 and the “O % observed antifungal activity” value was found to be 33.25%. Moreover, in the assay on Fusarium graminerum [8] (setting [24]), the “Area (fungal growth)” value was determined as 486.54 mm2 and the “O % observed antifungal activity” value is 1.39%.
